24 compounds from PMC4336329 (PLoS ONE, 2015) can be followed below.

Molecules are shown by their SMILES. Hit rate of the full screen: of about 310,000 compounds, about 14,000 (4.5%) showed an effect of 50% or more. Effects have a minus sign here. This is one part of the list.
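Further: peak tail current of the secondary pulse compared with the same well before compound.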

Sequence of human ether-à-go-go-related gene (hERG) potassium channel (Q12809 whole entry, looked up): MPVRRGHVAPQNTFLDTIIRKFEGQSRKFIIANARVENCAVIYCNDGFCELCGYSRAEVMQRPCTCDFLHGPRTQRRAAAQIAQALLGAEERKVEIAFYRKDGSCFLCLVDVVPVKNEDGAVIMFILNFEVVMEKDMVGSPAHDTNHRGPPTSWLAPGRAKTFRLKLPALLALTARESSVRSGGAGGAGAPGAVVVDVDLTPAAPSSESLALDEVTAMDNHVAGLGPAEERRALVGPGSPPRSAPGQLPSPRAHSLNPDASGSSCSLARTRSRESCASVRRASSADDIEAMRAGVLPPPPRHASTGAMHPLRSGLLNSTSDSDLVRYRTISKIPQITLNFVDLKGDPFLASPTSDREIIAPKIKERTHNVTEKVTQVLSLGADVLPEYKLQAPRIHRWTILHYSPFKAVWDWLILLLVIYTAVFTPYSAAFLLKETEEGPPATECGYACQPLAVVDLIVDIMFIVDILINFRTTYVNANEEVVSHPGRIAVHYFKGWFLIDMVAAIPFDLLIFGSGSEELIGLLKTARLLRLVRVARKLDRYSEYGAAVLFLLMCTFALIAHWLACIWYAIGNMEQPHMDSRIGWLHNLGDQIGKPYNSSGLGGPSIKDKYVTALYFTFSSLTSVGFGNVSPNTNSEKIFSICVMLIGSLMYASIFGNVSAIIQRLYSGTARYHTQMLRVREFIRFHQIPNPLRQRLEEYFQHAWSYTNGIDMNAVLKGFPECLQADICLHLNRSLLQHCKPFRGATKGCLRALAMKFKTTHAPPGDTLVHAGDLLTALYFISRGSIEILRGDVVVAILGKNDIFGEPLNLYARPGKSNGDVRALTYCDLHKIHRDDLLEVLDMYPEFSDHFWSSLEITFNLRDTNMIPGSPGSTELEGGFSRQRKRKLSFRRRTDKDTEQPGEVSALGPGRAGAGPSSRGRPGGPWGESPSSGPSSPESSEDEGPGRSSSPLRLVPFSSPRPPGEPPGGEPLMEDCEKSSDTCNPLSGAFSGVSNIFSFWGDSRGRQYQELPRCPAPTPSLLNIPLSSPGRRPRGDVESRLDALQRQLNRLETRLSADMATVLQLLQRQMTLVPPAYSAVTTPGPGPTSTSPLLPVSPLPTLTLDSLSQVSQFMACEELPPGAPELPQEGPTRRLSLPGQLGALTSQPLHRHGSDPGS

The assay addresses human ether-à-go-go-related gene (hERG) potassium channel (human, UniProt Q12809). Kind of assay: primary screen, population patch clamp on CHO cells stably expressing hERG.
Regarding `CC(C)C(C)NC(=O)CSc1ccc(S(=O)(=O)N2CCOCC2)cn1` (stereo not drawn), the “hERG current change (%, negative = inhibition) at 10uM” value is reported as -1.56%. As to `Cc1ccc(C)c2c1cc(C)c1nnc(SCC(=O)Nc3nc4c(s3)CCCC4)n12`, the “hERG current change (%, negative = inhibition) at 10uM” value amounted to 1.01%. For the compound `O=[N+]([O-])c1cc(F)c(N2CCCCC2)cc1Br`, the “hERG current change (%, negative = inhibition) at 10uM” value was -3.83%. As for `Cc1cccc(NC(=O)CSc2nnc(CNC(=O)c3ccc(S(=O)(=O)N(C)C)cc3)n2-c2cccc(C)c2)c1`, the “hERG current change (%, negative = inhibition) at 10uM” value came to 0.252%. Take `O=C(/C=C/c1c(F)cccc1Cl)Nc1ccncc1`: the “hERG current change (%, negative = inhibition) at 10uM” value is reported as -3.29%. Take `CCCCOC(=O)Nc1nc2ccc([N+](=O)[O-])cc2s1`: the “hERG current change (%, negative = inhibition) at 10uM” value is reported as 15.1%. For `O=C(Nc1ccccc1)/C(=C/c1cccc(Br)c1)NC(=O)c1ccco1`, the “hERG current change (%, negative = inhibition) at 10uM” value was 5.35%. In the case of `COCc1ccc(CN2CCCC(CO)(Cc3cccc(Cl)c3)C2)o1` (stereo not drawn), the “hERG current change (%, negative = inhibition) at 10uM” value is -46.1%.

For the compound `Cc1ccccc1NC(=O)c1ccc(NS(=O)(=O)c2cc(C(C)(C)C)cc(C)c2C)cc1`, the “hERG current change (%, negative = inhibition) at 10uM” value worked out at 9.99%. With `CCN(CC)CCCNC(=O)Cn1ncc2c(=O)oc3ccc(C)cc3c21`, the “hERG current change (%, negative = inhibition) at 10uM” value is given as -7.17%. As to `O=C(O)CCc1ccc(-c2cccs2)n1NC(=O)c1ccc(Cl)cc1`, the “hERG current change (%, negative = inhibition) at 10uM” value was 9.36%. With `Cl.NC[C@@H]1O[C@H](C23CC4CC(CC(C4)C2)C3)Cc2c1ccc(O)c2O`, the “hERG current change (%, negative = inhibition) at 10uM” value is 6.01%. As to `Cc1cnn(CCC(=O)NNC(=S)Nc2ccccc2)c1`, the “hERG current change (%, negative = inhibition) at 10uM” value is recorded as -0.993%.

`CCCn1c(SCC(=O)OCc2ccccc2)nc2c1c(=O)n(C)c(=O)n2C`: the “hERG current change (%, negative = inhibition) at 10uM” value is -28.3%. The result for `N/C(=N\OC(=O)c1ccc(Cl)c(Cl)c1)c1cccnc1` reads 5.76%; that for `NC(=O)N(CCC(=O)O)c1ccccc1`, -2.25%; that for `Cc1cc(Cl)c(OCCOCCN2CCCC(C)C2)c(Br)c1.O=C(O)C(=O)O` (stereo not drawn), -61.8%. For `CC(C)(C)C(=O)Nc1cccc(-c2ncon2)c1`, the “hERG current change (%, negative = inhibition) at 10uM” value was found to be 3.48%.

As for `O=C(NCCN1CCN(C(=O)c2ccc(F)cc2)CC1)c1ccc(F)cc1`, the “hERG current change (%, negative = inhibition) at 10uM” value was -70.1%. The result for `CCOC(=O)c1cccc(N2C(=O)C3C(C(=O)NC4CC4)C4(C)C=CC3(O4)C2C(=O)NC(C)(C)C)c1` (stereo not drawn) reads 12.7%; that for `OCCC1CN(Cc2nc3c(s2)CCCC3)CCN1CCc1ccccc1` (stereo not drawn), -61.4%. On to `CCOC(=O)/C(N=Nc1ccc(C(=O)O)cc1[N+](=O)[O-])=C(\C)O`, for which the “hERG current change (%, negative = inhibition) at 10uM” value is on record as 54.9%. For `C/C(=N\NC(=O)c1cccs1)c1ccncc1`, the “hERG current change (%, negative = inhibition) at 10uM” value was 48.5%. `CCOc1c(Cl)cc(C(=O)NCCN2CCCCC2)cc1Cl`: the “hERG current change (%, negative = inhibition) at 10uM” value is -58.6%.
